From a compilation of properties of binary mixtures (doi:10.1016/j.molliq.2018.12.032)
The densities may have been worked out from excess volumes.

Assay: xn = mol fraction of the nth substance listed

With C[P+](c1ccccc1)(c1ccccc1)c1ccccc1.[Br-] + OCCO the mass density (293.15 K, 101 kPa, x1 = 0.25) was 1245 kg/m3, the mass density (303.15 K, 101 kPa, x1 = 0.25) was 1238 kg/m3 and the mass density (313.15 K, 101 kPa, x1 = 0.25) was 1231 kg/m3. The mass density (323.15 K, 101 kPa, x1 = 0.25) was 1224 kg/m3, the mass density (333.15 K, 101 kPa, x1 = 0.25) was 1217 kg/m3 and the mass density (343.15 K, 101 kPa, x1 = 0.25) was 1210 kg/m3. It also gave a mass density (353.15 K, 101 kPa, x1 = 0.25) of 1203 kg/m3.
In the case of [Cl-].c1ccc(C[P+](c2ccccc2)(c2ccccc2)c2ccccc2)cc1 + OCCO, the mass density (303.15 K, 101 kPa, x1 = 0.083) is reported as 1128 kg/m3, the mass density (323.15 K, 101 kPa, x1 = 0.083) is reported as 1114 kg/m3 and the mass density (333.15 K, 101 kPa, x1 = 0.083) is reported as 1107 kg/m3. For the same molecule, the mass density (343.15 K, 101 kPa, x1 = 0.083) was 1100 kg/m3 and the mass density (353.15 K, 101 kPa, x1 = 0.083) was 1093 kg/m3.
With C[P+](c1ccccc1)(c1ccccc1)c1ccccc1.[Br-] + OCCOCCO the mass density (303.18 K, 101.3 kPa, x2 = 0.2) was 1206 kg/m3, the mass density (313.18 K, 101.3 kPa, x2 = 0.2) was 1199.2 kg/m3 and the mass density (333.17 K, 101.3 kPa, x2 = 0.2) was 1185.2 kg/m3. For the same molecule, the mass density (343.16 K, 101.3 kPa, x2 = 0.2) was 1178.2 kg/m3 and the mass density (353.16 K, 101.3 kPa, x2 = 0.2) was 1170.9 kg/m3.
[Cl-].c1ccc(C[P+](c2ccccc2)(c2ccccc2)c2ccccc2)cc1 + OCCOCCO gave a mass density (293.15 K, 101.3 kPa, x2 = 0.125) of 1142.7 kg/m3, a mass density (313.05 K, 101.3 kPa, x2 = 0.125) of 1132.6 kg/m3 and a mass density (323.11 K, 101.3 kPa, x2 = 0.125) of 1125.9 kg/m3. For the same molecule, the mass density (333.17 K, 101.3 kPa, x2 = 0.125) was 1118.9 kg/m3, the mass density (343.1 K, 101.3 kPa, x2 = 0.125) was 1112.2 kg/m3 and the mass density (353.16 K, 101.3 kPa, x2 = 0.125) was 1104.8 kg/m3.
